# Results from the supplement of paper PMC11417369.
# The list shows a part of the results.
# Tested on: PfAP2-HC AP2 domain (GST-tagged)
# Experiment: gcPBM binding intensity (ln(normalized median fluorescence intensity)); higher = stronger DNA binding
# Procedure, shortened: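 Using an Agilent 4 × 180k array, primer-extended double-stranded 36-bp intergenic genomic probes and negative controls were exposed for 1 h to GST-fused P. falciparum DNA-binding domains expressed in E. coli. Binding was carried out in 1× PBS with 1% milk, 0.2 mg/ml BSA, 0.5% salmon testes DNA and 0.03% Triton X-100, and protein was detected with Alexa488 anti-GST antibody and a 488 nm scan. Binding intensity is the highest Masliner-normalised natural-log median intensity across replicate spots of either probe orientation.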
row,Sequence,gcPBM binding intensity (ln)
1,ATAAATACATATGTGTGTACACATTATATATATATA [XGTACX_site1486],10.1
2,GAAAAATTAAAACCTACACACACATTTAAAAAAAAA [CACACA_site9005],11
3,TATATATTACATACATGTACCCAAAAAAAAAAAAAA [XGTACX_site1168],9.46
4,ATATATATATAATCATCACACATGCAGCCCTGATGA [CACACA_site5500],9.66
5,TTGCATTAATTTATGTGTACATATAAATTTTTATTT [XGTACX_site3060],9.89
6,TATAAATATAAATATACACACATATATATATATATA [CACACA_site1678],9.66
7,CTTATAGGTCATTTCCTTGACCCCCTTTGTTGTACT [CACACA_negctrl_site551],9.5
8,ATCAGTCGGCAGGACAGTACACAGTAGCCAGAAAAT [XGTACX_site2550],9.66
9,GTGTAGATATTGAAATGTACTCTCCATATAAAATAA [XGTACX_site4713],9.33
10,AAAGAATTTGCATATACACACAAAAAAATATATACA [CACACA_site386],10.1
11,TTACGATACTTTAGGTGTACACAAATATACATGAAT [XGTACX_site4322],9.77
12,ATATATATATATATATGTACTTATTTATTTATATTA [XGTACX_site4646],9.5
13,TTTTTTTTTTTTTTATGTACACATCTAAAAAAAAGG [XGTACX_site2067],9.18
14,GCCCCCTAAAAAATTACACACGAAAAAAATGAATTT [CACACA_site9128],9.95
15,TAAGTATAAAAAAATAGTACAATTATGAAATATCGT [XGTACX_site2529],9.73
16,GGTCTAACAACATGCGCACACACATGAATATTCATA [CACACA_site1539],10.1
17,TTTAACAAGTTAAACACACATACATATATACATATA [CACACA_site2536],9.71
18,AACAAAATTGAAGGAACACACATACATATTTATATA [CACACA_site6227],10.1
19,AAAAAATTAGATTATGCACACACACTAATAAATAAT [CACACA_site8604],10.2
20,TTTATTTAAGAAAAATGTACAGGTTCATTTCATAAT [XGTACX_site27],9.36
21,CATATAAATACATGCACACAAAAATATCAATACATT [CACACA_site2392],9.95
22,TATAAAAATATATATATATATATATATATAATATGT [TGCATGCA_negctrl_site85],9.52

row,Sequence,gcPBM binding intensity (ln)
1,TTAAAAAAAAAACACACACACATACCCATATATATA [CACACA_site5768],10.4
2,ATTTGTTCCTTGGGAGTTTACTTTTTTTTAATTTTA [CACACA_negctrl_site638],9.73
3,TTCTTTTTAATTAATACACACACACCCATATATATA [CACACA_site8719],10.2
4,ACATGTGAACATTCAATGCACACGATGTAATTATAC [CACACA_site14],9.84
5,ATGTGTTAAAAATGCACACAAAAAAATATACATATA [CACACA_site295],10.2
6,ATATTATATATATACACACACACATGCATGCACCTA [CACACA_site106],10.7
7,TTTTTTAAATATATGGTGCATAGAAAGATATTATAC [GTGCAC_site9984],9.47
8,TTTAAAAAAAGCAGTACATGCAAAATAATAACAAGC [TGCATGCA_site392],10.1
9,TAAAAAAATATTACATGTACATAAAATATATATATA [XGTACX_site4633],9.63
10,CAATTATATAATTGAAGTACTAGGAAAGATATATAT [XGTACX_site5459],9.75
11,CTTAAATTTTACTGAAGTACAAAATCGGTTCAATGA [XGTACX_site3292],9.36
12,TATACATATTTTTTTTGTACATATATAATATATATA [XGTACX_site2399],9.56
13,GGGAAAAAAAAAAGCACACATACGTAAATATATAAC [CACACA_site226],10.1
14,AATTAAATTCGGTACTGTACATTTCAAAAATATACG [XGTACX_site48],9.51
15,AATACCATAATCAATGCACACATAACAAAATATTAT [CACACA_site8873],10.1
16,TACGAAAAAAAAAAAAAAAAAAAAAAACACAAAAAA [CACACA_negctrl_site1643],9.3
17,TTTTAATATTTTAAGAGTACAGAAATATATAATATG [XGTACX_site4955],9.33
18,ATTTTATAACATTCATGTACACATTTCATTTATTTG [XGTACX_site3028],9.78
19,CATATAAATATATATACACACACACCGTAATACATA [CACACA_site9158],10.8
20,AGAGACACTTTTTATTGTACAAGAGGAGGTTACCTT [XGTACX_site8768],9.6
21,TTTTTATATTTTATAGTGCAAAAACTTACATAAAAT,9.54
22,ATATAATGGACCATAGTGCATAAAAATAACAAAAAA [GTGCAC_site9558],9.84

row,Sequence,gcPBM binding intensity (ln)
1,TATTTTTTTTCTTTATTTATAACGCTCAATATATTC [GTGCAC_negctrl_site265],9.64
2,TGGAAATATATATATATATATACATATATATATAGC [XGTACX_negctrl_site107],9.54
3,TATGAAGAAAAGAATTGTACGATGTTTATTTTGTAT [XGTACX_site8614],9.59
4,TGTTAATAGAAATACGTGCACACTAAAGGGAAAACA [CACACA_site1485],9.88
5,TTGTTATCTACCTGTAGTACATATATTATGTAATAT [XGTACX_site735],9.71
6,TAAATATATATATACACACACACCAAAGCAATAGAT [CACACA_site2940],10.6
7,ATTAAATATGTCAAGTGTACAAAATGTAAAAAAAAA [XGTACX_site4119],10.1
8,TTATATATACCTAAGACACACACATATATATATATA [CACACA_site8153],10.2
9,GCCATTGTACCATCCACACACATATAAATATGTATA [CACACA_site7303],10
10,TATATAACATATAACACACATACTTAGTATTACATA [CACACA_site3099],9.8
11,ACAGTATCAATATGGATAAAAATGTCCATATGCCTG [TGCATGCA_negctrl_site482],9.6
12,CTATATCATTTTCTAGCACACACATTGTTATTACCT [CACACA_site8204],10.2
13,GAATATAAACCTATTACACACATCTATATGTACATT [CACACA_site1914],10.1
14,TTTTTTATGCTAACTTCTTTTTCCTTATAAAATTGG [TGCATGCA_negctrl_site598],9.46
15,ATTTTTTTTATTATTACACACATATAACAAAAAAAT [CACACA_site6934],9.63
16,TTTTTATATTTCAACATATCACAATTTTATATATCT [CACACA_negctrl_site178],9.7
17,ATATATATATTATATGCACACTTATATTTCATTAGA [CACACA_site5439],9.65
18,TATTTATAAATGAACACACACGCAATTTGAATCGAA [CACACA_site3371],10.3
19,AACACATACAGATATGCACACATTTTATTCCATTAT [CACACA_site5565],9.97
20,TAAATATTAACAATCGCACACATATTATTTTTCCAA [CACACA_site1626],9.79
21,AAGGTAAACAGACACACACACATACAAAAAAAAAAA [CACACA_site3768],10.8
22,GAATATATATTCATATGTACACAATTTATGTATTAT [XGTACX_site4719],9.78

row,Sequence,gcPBM binding intensity (ln)
1,AAAAAGAAAAAATATATTCGTCTATTATAAACAATA [CACACA_negctrl_site648],9.34
2,ATAATTCTTTTACTGTGTACATATTATCACTTATTT [XGTACX_site2456],9.94
3,CATTATGTTGTAAATACACACATACAGATACATACA [CACACA_site4565],9.94
4,TAAAGGCAAACAAACACACACACATAAATACAGATA [CACACA_site5204],10.7
5,ATATGCGTTTGCAAATGTACATATTATTTATATATA [XGTACX_site7128],9.61
6,TTTTTTGGTTTTCATGCACACAATTTATAAATCTAT [CACACA_site3106],9.96
7,TTTTGTTTTTGTAGAGTGCATAAAGAAGATATGTAT,9.39
8,TGGAAACAATGACACACACACAAAAAAAAAAAAAAA [CACACA_site7494],10.3
9,ATAATAATATTTCTATGTACTTATTTTATGTATTAG [XGTACX_site1747],9.69
10,TATAAATACTTAGAAACACACAAAAATATTTTATAA [CACACA_site7259],9.71
11,AAAAATTAAAATATAACTAATTAATTTGTATTCATT [CACACA_negctrl_site1633],9.48
12,GTAGGGGAAAAAAAAACACACAAAAAACAACAGATC [CACACA_site1187],10.2
13,TTATCTCTACAAAGTGCACACACGTAAAAACATATA [CACACA_site3957],9.83
14,TGTAATTGTTTAAAGGGTACATATATCAGATGTCTT [XGTACX_site5877],9.44
15,TTAGTAAATACATTTGCACACATTATTTTTTAACAT [CACACA_site5448],9.91
16,ATTTATTTATTTATATGTACTTAAATGAAAGGAATA [XGTACX_site6024],9.35
17,TTTCAAAATTTTTATTTTAAATAAACATTTATAAAA [CACACA_negctrl_site1588],9.33
18,ACATACATTTTTAAATGTACATATATATATATATAT [XGTACX_site6751],9.99
19,CCGATATAATGGAAAACACACAAAAGATATATATAT [CACACA_site2683],10.1
20,ATATGGCACATATGTACACACGTATAGATAATATTA [CACACA_site5162],9.91
21,AATATTATATGGACGTGTCCACATAAACCTATATAT [XGTACX_site2053],9.64
22,GGAAATATAAAATCATGTACATATGTATATATAATT [XGTACX_site5491],9.93
